Screen size: about 390,000 compounds; about 930 (0.24%) were called active. Inconclusive results, whose numbers are uncertain, are shown with a selection of clear calls. Calls follow the shape of the dose curve; as a rule, active = well fitted activation curve with a large enough effect; inconclusive = small, poorly fitted or top-dose-only effect; inactive = no such curve, though single readings can be large or run the other way. Potencies beside an inconclusive call are fits to weak or partial responses and may not hold up.
test: qHTS for Suppressors of FUS Proteinopathy: Primary screen using FUS-linked yeast assay; also: nearly all actives have a fitted effect of over 55% in size;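 as to growth rescue (activation): plate controls were DMSO vehicle for no effect and reference control for full effect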; conditions: S. cerevisiae FUS-expressing, OD600, 24 h; Potency: growth rescue; growth rescue (activation): at 76.6 µM (top of the series)
Procedure, shortened: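 Steps: raffinose overnight preculture; dilution to OD 0.005 in 2% galactose minimal medium; compound addition (concentration series); 24hr at 30C, 99% humidity; absorbance read at 600 nm.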
Potency is read from the fitted curve at half-maximal effect; tags tell the direction and shape of the fitted curve.

| Structure (SMILES) | Potency | growth rescue (activation) |
| --- | --- | --- |
| Cn1cc(-c2cc3n(n2)CCC(=O)N3CCCC(=O)Nc2ccccc2Cl)c2ccccc21 | inconclusive: 50.1 µM [activator, single point] | – |
| O=C(C[C@H]1C[C@H](C(=O)N2CCOCC2)[C@@]2(CCC3CCCC3)c3[nH]c4cc(-c5ccco5)ccc4c3CCN2C1=O)NCCc1ccccn1 | inconclusive: 28.2 µM [activator, single point] | – |
| C#CCNC(=O)C[C@H]1C[C@@]2(C(=O)OC)C(=C[C@H](C3CCCC3)O[C@@H]2C)N(Cc2ccc(Cl)cc2Cl)C1=O | inconclusive: 25.1 µM [activator, partial curve] | – |
| CC(C(=O)NCc1cccc(Br)c1)n1ncn2cccc2c1=O (stereo not given) | inactive | – |
| CN(c1ccccc1)c1ncccn1 | inactive | – |
| CCCC(=O)NC(=S)Nc1ccccc1OC | – | inconclusive: 63.7% [activator] |
| COc1ccc(C)cc1NC(=O)C1CCN(S(=O)(=O)c2ccc3[nH]c(=O)oc3c2)CC1 | inactive | – |
| COc1ccc(OC)c(-c2nnc3n2N=C(c2ccc(OC(F)F)c(OCC4CC4)c2)CS3)c1 | inactive | – |
| CSc1ccc(-c2sc(Nc3cccc4ccccc34)n[n+]2-c2ccccc2)cc1 | inconclusive: 25.1 µM [activator, single point] | – |
| COc1ccc(CCn2c3c(c(=O)[nH]c2=O)C(NC(=O)c2ccccc2F)(C(F)(F)F)C(=O)N3)cc1OC (stereo not given) | inactive | – |
| COc1ccc2nc(Nc3nc(CSc4nc5ccccc5[nH]4)cc(=O)[nH]3)nc(C)c2c1 | inconclusive: 12.6 µM [activator, partial curve, poor fit] | – |
| N/C(Cc1ccc(Cl)cc1Cl)=N\OC(=O)Cc1ccc(Cl)cc1 | inactive | – |
| C[C@H]1CN([C@@H](C)CO)C(=O)c2cc(NC(=O)NC3CCCCC3)ccc2O[C@H]1CN(C)C(=O)Nc1ccc(C(F)(F)F)cc1 | inconclusive: 50.1 µM [activator, single point] | – |
| COC(=O)C(Cc1c[nH]c2ccccc12)NC(=O)c1cccc(S(=O)(=O)N2CCCCC2)c1 (stereo not given) | inconclusive: 50.1 µM [activator, single point] | – |
| O=C1CN(C(=O)COc2ccc(Cl)cc2)C(c2ccccc2)c2cc(Br)ccc2N1 (stereo not given) | inactive | – |
| CC(C)(C)OC(=O)N1CCC(c2c(C(=O)Nc3ccc4c(c3)OCCO4)cnn2-c2ccc(Cl)cc2)CC1 | inconclusive: 28.2 µM [activator, single point] | – |
| COc1ccc(Cn2c(=O)[nH]c3cc(C(=O)NCCCN4CCCC4)ccc3c2=O)cc1 | inactive | – |
| COc1ccc(-c2cn[nH]c2-c2ccc(OCc3ccccc3)cc2O)cc1OC | inconclusive: 35.5 µM [activator, single point] | – |
| CCN(CC)S(=O)(=O)c1ccc(N2CCCC2)c(NC(=O)c2nn(C)c(=O)c3ccccc23)c1 | inconclusive: 28.2 µM [activator, single point] | – |
| Cc1c(C(=O)N(C)Cc2ccc(F)cc2)sc(=O)n1Cc1ccc(Cl)c(Cl)c1 | inactive | – |

| Structure (SMILES) | Potency | growth rescue (activation) |
| --- | --- | --- |
| CC(=O)c1cccc(NC(=O)C2CCN(C(=O)c3cnn(-c4ccccc4)c3-n3cccc3)CC2)c1 | inconclusive: 17.8 µM [activator, partial curve, poor fit] | – |
| Cc1c(C(=O)NCc2ccccc2Cl)sc2nc3n(c(=O)c12)CCCCC3 | inconclusive: 50.1 µM [activator, single point] | – |
| Cc1cn2c(=O)cc(COC(=O)c3cccc(NC(=O)c4ccc(C(C)(C)C)cc4)c3)nc2s1 | inactive | – |
| O=C(Nc1ccc(Br)cc1)C1CC(c2c(F)cccc2Cl)=NO1 (stereo not given) | inactive | – |
| O=C(Nc1nc(-c2ccccn2)cs1)C1COc2ccccc2O1 (stereo not given) | inactive | – |
| Cc1cccc(NC(=O)c2ccc(COc3ccc(Cl)cc3Cl)o2)n1 | inconclusive: 50.1 µM [activator, single point] | – |
| CC1(C)CC(=O)C2=C(C1)N1C(=C(C#N)C2c2ccccc2Cl)N=C(N)c2ccccc21 (stereo not given) | inconclusive: 35.5 µM [activator, single point] | – |
| C[C@H]1CN([C@@H](C)CO)C(=O)CCCn2nncc2CO[C@H]1CN(C)C(=O)Nc1ccc2c(c1)OCO2 | inactive | – |
| COC(=O)C(Cc1c[nH]c2ccccc12)NC(=O)COc1cccc(C)c1 (stereo not given) | inactive | – |
| CCOc1ccc(N2C(=O)C3Sc4[nH]c(=O)sc4C(c4ccc(OC)c(OC)c4)C3C2=O)cc1 (stereo not given) | inconclusive: 28.2 µM [activator, partial curve, poor fit] | – |
| Cc1ccc(Cl)cc1N1CCN(C(=O)c2ccc(NC(=O)c3nsc4ccccc34)cc2)CC1 | inconclusive: 31.6 µM [activator, single point] | – |
| COc1ccc(CNC(=O)C[C@H]2C[C@H](C(=O)N3CCCCC3)[C@@]3(CCc4ccccc4)c4[nH]c5cc(-c6ccco6)ccc5c4CCN3C2=O)cc1OC | inconclusive: 31.6 µM [activator, single point] | – |
| Cc1cc(C)cc(Nc2ncnc3nc[nH]c23)c1 | inconclusive: 6.31 µM [activator, partial curve, poor fit] | – |
| Cc1ccc(-c2c3c(nc4sc(C(N)=O)c(N)c24)CCC3)cc1 | inconclusive: 20 µM [activator, partial curve, poor fit] | – |
| Cc1cccc(C)c1NC(=O)C(c1ccc(C#N)cc1)n1c(=O)c(-c2cc3ccccc3[nH]2)nc2ccccc21 (stereo not given) | inactive | – |
| O=C(COc1ccccc1)N1CCN(c2nnc(-c3ccccc3)c3ccccc23)CC1 | inactive | – |
| CC(=O)c1cccc(NC(=S)NC(=O)c2cncc(Br)c2)c1 | inconclusive: 0.891 µM [activator, full curve, poor fit] | – |
| CC(C)(C)OC(=O)NCc1ccc(CNC(=O)c2nc[nH]c2C(=O)N2CCN(c3ccccc3)CC2)cc1 | inconclusive: 15.8 µM [activator, partial curve, poor fit] | – |
| Cc1ccc(-c2ccc(=O)n(CC(=O)Nc3ccc(C)cc3Cl)n2)cc1 | inconclusive: 35.5 µM [activator, single point] | – |
| CC(C)(C)OC(=O)N1CCC(c2ccc[nH]2)(c2c[nH]c3ccccc23)CC1 | inactive | – |
